Measured values from article PMC4336329 (PLoS ONE, 2015).
Out of some 310,000 compounds screened, about 14,000 (4.5%) showed an effect of 50% or more. Effects have a minus sign here. Some of the results follow.

Target: human ether-à-go-go-related gene (hERG) potassium channel (human, UniProt Q12809)
Test: primary screen, population patch clamp on CHO cells stably expressing hERG
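Note: peak tail current of the secondary pulse compared with the same well before compound.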

Sequence of human ether-à-go-go-related gene (hERG) potassium channel (Q12809 whole entry, looked up): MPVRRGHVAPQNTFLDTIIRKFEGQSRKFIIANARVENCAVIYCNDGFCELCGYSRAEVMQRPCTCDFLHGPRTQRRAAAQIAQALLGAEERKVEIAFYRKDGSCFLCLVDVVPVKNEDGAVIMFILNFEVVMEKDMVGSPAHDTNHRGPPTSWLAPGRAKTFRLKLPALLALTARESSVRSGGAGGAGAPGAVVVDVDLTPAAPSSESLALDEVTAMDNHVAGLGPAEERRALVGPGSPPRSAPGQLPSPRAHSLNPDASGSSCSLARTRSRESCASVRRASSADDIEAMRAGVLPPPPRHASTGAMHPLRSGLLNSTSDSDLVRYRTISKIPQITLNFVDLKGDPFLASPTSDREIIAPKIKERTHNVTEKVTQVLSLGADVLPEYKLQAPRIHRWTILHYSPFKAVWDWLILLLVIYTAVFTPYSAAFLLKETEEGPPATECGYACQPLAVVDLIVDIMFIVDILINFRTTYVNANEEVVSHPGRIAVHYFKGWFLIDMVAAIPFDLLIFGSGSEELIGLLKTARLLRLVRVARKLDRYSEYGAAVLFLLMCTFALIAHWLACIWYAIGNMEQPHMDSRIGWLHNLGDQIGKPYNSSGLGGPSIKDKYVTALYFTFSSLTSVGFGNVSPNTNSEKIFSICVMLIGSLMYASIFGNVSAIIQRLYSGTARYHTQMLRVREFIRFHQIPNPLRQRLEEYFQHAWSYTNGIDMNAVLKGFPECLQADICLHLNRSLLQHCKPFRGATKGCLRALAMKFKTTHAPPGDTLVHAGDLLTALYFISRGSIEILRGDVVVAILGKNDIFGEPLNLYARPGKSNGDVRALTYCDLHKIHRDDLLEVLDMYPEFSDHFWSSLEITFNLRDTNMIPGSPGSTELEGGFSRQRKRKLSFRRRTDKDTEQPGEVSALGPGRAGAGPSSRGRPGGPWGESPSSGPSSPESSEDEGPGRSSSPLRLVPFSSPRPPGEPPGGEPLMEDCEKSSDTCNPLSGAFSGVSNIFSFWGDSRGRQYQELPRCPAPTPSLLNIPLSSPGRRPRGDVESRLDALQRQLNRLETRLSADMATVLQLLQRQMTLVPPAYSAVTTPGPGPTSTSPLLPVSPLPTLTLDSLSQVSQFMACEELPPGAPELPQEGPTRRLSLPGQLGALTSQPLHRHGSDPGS

Row | Compound | hERG current change (%, negative = inhibition) at 10uM [%]
1 | O=C1CCCN1CN(C(=O)c1ccc2c(c1)OCO2)c1ccc(F)cc1 | 8.9
2 | CCOc1ccc(C(=O)Nc2cc(=O)n(C)c(=O)n2C)cc1 | 2.31
3 | Cn1c(=O)cc(SCC(=O)N2CCN(C(=O)c3ccco3)CC2)c2ccccc21 | -27.4
4 | Cc1ccc(N(CC(=O)NC2CCCCC2)C(=O)CNC(=O)c2cccs2)cc1 | -11.1
5 | Cc1ccsc1C(=O)Nc1cccc(S(=O)(=O)N(C)C)c1 | -7.26
6 | CCc1nn(CCCC(=O)N2CCC(C)CC2)c(=O)c2cc3occc3n12 | -2.71
7 | O=C1N=c2ccccc2=C1c1sc(=O)[nH]c1O | 15.6
8 | Cn1cc(Br)c(C(=O)n2cc(Br)cn2)n1 | 16.2
9 | CCOc1ccc2ccccc2c1C(=O)N1CCN(c2ccccc2)CC1 | -36.4
10 | COC(=O)c1scc(S(C)(=O)=O)c1-n1cccc1 | 9.77
11 | O=C(c1ccc(Br)cc1)N1CCN(S(=O)(=O)c2ccccc2)CC1 | -38.5
12 | N#Cc1ccsc1NC(=O)CN1CCN(Cc2ccccc2)CC1 | -66.4
13 | COc1ccc2nc(/N=C(\N)NC(=O)C(C)(C)C)nc(C)c2c1 | -46.5
14 | O=C(CC(Nc1ccccc1)C(=O)O)c1ccccc1 (stereo not drawn) | 11.2
15 | Nc1nc(CN2CCN(C(c3ccccc3)c3ccccc3)CC2)nc(Nc2ccccc2)n1 | -18.4
16 | Cc1ccc2oc(=O)cc(CN3CCOCC3)c2c1 | -8.53
17 | CCCCN=CC1=C(O)CC(c2ccccc2)CC1=O (stereo not drawn) | -9.85
18 | Cl.OC(COc1ccccc1F)CN1CCC(Cc2ccccc2)CC1 (stereo not drawn) | -76.2
19 | CCOC(=O)NC(=O)CSc1nc2ccc(C)cc2[nH]1 | 8.02
20 | Cc1ccccc1CCNC(=O)C1CC(O)CN1C(=O)Nc1ccccc1 (stereo not drawn) | 6.41
21 | CCC1CCCCN1Cc1nc2c(c(=O)n(C)c(=O)n2C)n1CCCc1ccccc1 (stereo not drawn) | -11.2
22 | COc1cccc(CNc2nc3nc(C)c(Cl)c(=O)n3[nH]2)c1 | 4.31
23 | COc1ccccc1NCC(=O)c1ccc(C)c(C)c1 | 15.3

Row | Compound | hERG current change (%, negative = inhibition) at 10uM [%]
24 | O=C(CCC(=O)Nc1ccccc1)NNC(=O)c1ccccc1Cl | 13.8
25 | Cc1cc(C)c2c(n1)sc1c(=O)n(-c3ccccc3)c(=O)[nH]c12 | 11.1
26 | COc1ccc(Cl)cc1S(=O)(=O)N1CCCC(C(=O)NCc2ccccc2)C1 (stereo not drawn) | -34.2
27 | O=C(CN1CCOc2ccccc21)NCc1ccco1 | 2.93
28 | CC(/C=N/n1c(C2CCCCC2)n[nH]c1=S)=C\c1ccccc1 | 12.5
29 | O=C(N/N=C\c1cccs1)c1sccc1-n1cccc1 | 8.13
30 | CC(C)CCn1c(SCCN2CCOCC2)nc2c1c(=O)[nH]c(=O)n2C | -17.7
31 | Cc1ccc(N=C2C(=S)N(c3ccc(C)cc3)C(=N)N2/N=C/c2ccc(Cl)cc2)cc1 | -6.29
32 | CC1CCC2(CC1)NC(=O)N(NC(=O)c1cccc(N(C)C)c1)C2=O (stereo not drawn) | 0.939
33 | COc1ccc(CCC2(C)NC(=O)NC2=O)cc1 (stereo not drawn) | -10.4
34 | O=C(Nc1ccc(Cl)cc1Cl)NC1CCCC1 | 15.2
35 | O=C(CNC(=O)c1ccncc1)N/N=C/c1ccccc1[N+](=O)[O-] | 3.3
36 | COc1ccc(NC(=O)C2CCCN(S(=O)(=O)c3cccc4nonc34)C2)cc1OC (stereo not drawn) | 19.7
37 | Cc1ccc(-c2nnc(N3CCN(S(C)(=O)=O)CC3)c3ccccc23)cc1 | -32.5
38 | CCC(C)n1c(O)c(C=NC(C)c2ccccc2)c(=O)[nH]c1=S (stereo not drawn) | 25
39 | Cc1csc(=O)n1CCC(=O)OCC(=O)Nc1cc(Cl)ccc1[N+](=O)[O-] | -28.5
40 | COc1ccc(CNC(=O)N2CCN(c3ccc(F)cc3)CC2)cc1 | -6.24
41 | CCN1CCN(C(=O)CN(c2cc(OC)ccc2OC)S(C)(=O)=O)CC1 | 16.2
42 | CCOc1nc(N(C)C)nc(-n2nnc(C(C)=O)c2C)n1 | 4.46
43 | O=C(NCCCN1CCOCC1)/C(=C/c1ccco1)NC(=O)c1ccccc1 | 1.44
44 | CCOc1ccc(-n2nc3cc(C)c(N)cc3n2)cc1 | 14.5
45 | Cc1cc(C(=O)N/N=C/c2cccnc2)c(C)o1 | 8.2
